Reference: the supplement of paper PMC10441789
The list shows a part of the results. Antibody binding of pooled human sera (four to six donors per pool; dilution not stated) to peptides of the Trypanosoma cruzi antigen TSSA on microarrays. Quantile-normalised fluorescence in arbitrary units, mean of duplicate arrays; higher = more binding. No active / inactive call. The uninfected pools are read here as the healthy donors of the same country. The strongest signals lie near the top of the scale (about 60,000).

How the values were obtained:
Test in all cases: antibody binding signal (normalised fluorescence) (arbitrary fluorescence units); higher = stronger serum antibody binding to peptide
[1] = tested on: pooled sera of chronic Chagas disease patients, Argentina
Protocol: (§1)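 Microarray of 15-residue peptides over residues 30-55 of Trypanosoma cruzi TSSAII, each with 1 to 10 substitutions at naturally variable positions, probed with one serum pool per country.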

[2] = tested on: pooled sera of chronic Chagas disease patients, Bolivia
Protocol: as §1

[3] = tested on: pooled sera of chronic Chagas disease patients, Brazil
Protocol: as §1

[4] = tested on: pooled sera of chronic Chagas disease patients, Colombia
Protocol: as §1

[5] = tested on: pooled sera of chronic Chagas disease patients, Mexico
Protocol: as §1

[6] = tested on: pooled sera of chronic Chagas disease patients, USA
Protocol: as §1

[7] = tested on: pooled sera of uninfected people, Argentina
Protocol: as §1

[8] = tested on: pooled sera of uninfected people, Bolivia
Protocol: as §1

[9] = tested on: pooled sera of uninfected people, Brazil
Protocol: as §1

[10] = tested on: pooled sera of uninfected people, Mexico
Protocol: as §1

[11] = tested on: pooled sera of uninfected people, USA
Protocol: as §1

Sequence	antibody binding signal [1]	antibody binding signal [2]	antibody binding signal [3]	antibody binding signal [4]	antibody binding signal [5]	antibody binding signal [6]	antibody binding signal [7]	antibody binding signal [8]	antibody binding signal [9]	antibody binding signal [10]	antibody binding signal [11]
SGKENKAATGEAPSP	29000	27400	36300	1870	2500	24200	8320	3520	140	459	271
GTENKTATGEAPSPP	27600	31000	20900	2750	2470	22000	123	261	137	138	104
GKDKKAAAGGTPSPS	264	242	168	1500	562	1270	93.8	66.3	484	66.4	79.6
GKDKKTATGEAPSPP	5840	3050	5820	2950	3440	15200	143	85.8	101	82.9	107
KAAAGEAPSPPGASS	608	280	11100	350	229	7220	269	198	146	114	210
PPSGTDNKPAAGGTP	48500	38500	48100	8050	8850	15600	855	899	1670	1200	359
TPPSGKDNKPAAGGA	3450	1300	25200	1390	23400	14700	1410	983	200	205	238
TPPSGKDNKTAAGET	1440	2020	1850	1450	16200	2990	276	469	140	499	157
SGKENKTATGEAPSQ	14400	25200	24300	2250	2250	20300	6920	2570	273	731	136
TPPSGTEKKTAAGEA	33100	16600	27100	471	4230	1860	691	250	482	174	156
PSGTENKTATGGTPS	47300	26500	43700	2290	2890	9250	1280	634	597	825	424
NKAAAGGAPSPPGAS	279	349	1920	3570	282	1370	932	1250	243	219	1600
KPAAGEAPSPPGASS	728	270	19600	231	197	10300	231	176	120	98.5	157
TPPSGTENKAAAGEA	45400	39600	44200	226	2840	17900	2200	366	273	229	256
GTEKKPATGETPSPS	35800	19000	27500	2450	2840	23600	166	1320	1490	1920	2580
ISTPPSGKDNKTATG	5830	851	2920	1880	15700	2290	267	349	149	101	275
PSGTDKKPATGETPS	31800	22400	35100	4760	1710	23700	187	644	501	4730	270
GKDNKAAAGGAPSQP	392	193	3210	1330	816	630	180	340	118	78.8	114
PSGTENKPATGETPS	44500	45400	48100	793	1880	28900	1550	1290	564	1970	638
TENKPATGGTPSQPG	43800	1730	17900	809	1030	2250	452	792	522	640	237
NKPATGETPSQSGAS	16600	32900	37900	229	204	36500	496	943	482	1740	968
PPSGKDKKAAAGGAP	1120	384	712	2450	28500	1560	211	532	120	108	155
SGKEKKTATGEAPSQ	13500	2330	10500	1530	2280	17300	364	196	102	140	122
SGKDNKTATGGTPSP	814	589	902	3180	984	1850	261	146	170	119	155
SGKEKKPATGGAPSQ	8020	510	4110	2930	3980	4950	283	350	103	85.9	215

Sequence	antibody binding signal [1]	antibody binding signal [2]	antibody binding signal [3]	antibody binding signal [4]	antibody binding signal [5]	antibody binding signal [6]	antibody binding signal [7]	antibody binding signal [8]	antibody binding signal [9]	antibody binding signal [10]	antibody binding signal [11]
PSGTDNKTAAGGTPS	12500	4480	45900	5860	1920	1590	251	573	2660	2560	300
KENKTAAGEAPSQPG	5300	12000	37800	376	237	7250	220	178	156	149	142
GTEKKTAAGGAPSPP	437	585	272	6650	939	1010	192	478	162	599	140
SSTPPSGKEKKAAAG	13200	220	355	676	11300	575	356	446	104	81.6	120
ENKPAAGGTPSQSGA	370	2450	1530	1410	531	463	339	745	1400	329	292
TEKKTAAGGTPSPSG	1140	200	448	13200	693	2800	109	117	1060	420	385
DKKPAAGEAPSPPGA	832	215	18500	212	256	15900	136	186	200	96.6	107
EKKAAAGGAPSQSGA	649	256	307	5190	492	528	163	553	303	180	545
KDKKPAAGEAPSQSG	239	1230	8550	152	156	11300	103	89.7	194	83.7	92.8
TDNKTATGETPSQSG	643	1520	7130	232	241	7610	100	384	262	220	117
NKPATGGAPSQPGAS	740	2330	30800	217	343	1550	758	1770	328	242	1380
KPATGETPSPPGASS	30700	29400	30600	172	228	21400	282	735	360	1610	455
KKPAAGEAPSPPGAS	255	183	7110	195	114	9610	314	282	98.3	80.8	425
GTENKTATGGAPSQP	35100	2520	6230	2200	2580	1990	383	418	284	525	153
KEKKTATGEAPSPPG	5870	4220	5260	258	239	13400	165	76.3	114	80.5	106
NKAATGETPSQPGAS	6220	11800	43300	304	219	11300	578	1950	595	290	1380
SGKDNKTAAGGAPSQ	586	249	968	6060	1070	2110	174	131	156	101	157
SGKDNKTAAGGAPSP	463	195	802	5850	1050	2420	210	139	131	129	148
PSGKEKKAAAGETPS	7190	2790	8090	10100	12200	7600	444	408	91.2	109	150
KDKKPAAGGAPSQPG	168	214	1840	1610	153	170	92.6	76.4	132	75.4	106
TENKTAAGGTPSPSG	28900	418	301	4070	438	1470	287	186	968	1440	211
TDNKPATGEAPSPSG	43800	47000	49300	326	181	38300	847	616	347	277	193
TDNKAAAGEAPSPPG	857	395	22200	190	147	12300	104	183	151	77.6	90.7
TENKAAAGGAPSPPG	36400	367	1490	2880	345	850	229	188	223	135	335
KDNKPAAGEAPSQSG	623	16700	27600	348	190	14800	191	559	228	368	120

Sequence	antibody binding signal [1]	antibody binding signal [2]	antibody binding signal [3]	antibody binding signal [4]	antibody binding signal [5]	antibody binding signal [6]	antibody binding signal [7]	antibody binding signal [8]	antibody binding signal [9]	antibody binding signal [10]	antibody binding signal [11]
KDNKPATGETPSQPG	35000	22400	39500	395	268	24500	419	988	425	1610	180
TENKPAAGETPSPPG	42600	655	20700	300	399	4630	161	407	194	156	905
KEKKTAAGGAPSQSG	215	278	234	2970	338	410	115	103	108	71.4	161
STPPSGKENKPATGE	34400	39800	34700	429	4610	21800	1920	2070	227	215	386
TPPSGTDKKAAAGGT	17200	1930	28700	7010	39100	2510	294	200	1330	1200	172
NKTATGGAPSQPGAS	677	645	7880	582	450	516	845	1080	398	427	1250
KEKKAAAGGAPSPSG	182	201	150	1950	283	342	118	95.8	107	80.9	99.6
SGTDKKTAAGGAPSQ	266	419	686	13000	946	962	234	151	174	242	161
KDKKTAAGGTPSPPG	248	211	197	2850	205	1490	98.7	101	239	80.7	124
TEKKPATGEAPSQPG	50100	51700	52300	389	396	41200	928	677	491	270	517
GTDKKAATGEAPSQS	20600	20800	28600	3220	1210	22400	393	188	129	224	202
GTEKKAAAGGTPSPP	390	201	244	5540	587	1920	154	723	2170	130	146
GKENKTAAGETPSQS	4630	810	11200	7460	7670	17600	471	212	161	207	207
KDNKPAAGETPSQPG	2330	1660	39600	390	188	4660	454	793	271	411	134
SGTENKPATGGAPSP	50600	29700	36100	655	1660	10200	978	2380	481	360	266
DKKAATGETPSPPGA	868	929	15900	172	336	11000	519	199	190	184	663
TENKPATGGAPSPSG	44100	20700	6150	313	1010	3700	346	1150	555	297	296
GKDNKPATGETPSQP	35600	22400	43300	2610	3570	29100	462	806	439	1980	149
PSGTDKKAAAGGAPS	1630	556	3570	8240	2460	1930	225	714	157	860	223
KDKKAAAGGTPSPPG	206	196	148	1590	211	1040	113	58.5	1090	82	88.2
TEKKPATGETPSQPG	32500	26900	42200	310	216	22800	222	689	603	1620	468
SGTDNKPATGGTPSP	4690	2040	44000	4030	599	630	217	898	485	491	246
GTDNKPAAGGTPSPS	2150	362	40200	2350	391	389	173	1080	1560	559	127
